Experimental data published in the CheMixHub viscosity set.
This continues a long series; more values of the same kind are listed elsewhere.

Experiment: xn = mol fraction of the nth substance listed

Nc1ccccc1 + C1CCCCC1
Conditions | viscosity [mPa·s]
301.73 K, 101 kPa, x1 = 0.229 | 0.985
302.05 K, 101 kPa, x1 = 0.229 | 0.979
302.32 K, 101 kPa, x1 = 0.238 | 1.071
302.61 K, 101 kPa, x1 = 0.229 | 0.968
302.61 K, 101 kPa, x1 = 0.238 | 1.065
302.75 K, 101.32 kPa, x1 = 0.496 | 1.66
303.56 K, 101 kPa, x1 = 0.238 | 1.034
303.62 K, 101 kPa, x1 = 0.229 | 0.943
303.75 K, 101.32 kPa, x1 = 0.2643 | 1.07
304.15 K, 101.32 kPa, x1 = 0.2643 | 1.03
304.15 K, 101.32 kPa, x1 = 0.4039 | 1.52
304.15 K, 101.32 kPa, x1 = 0.496 | 1.47
304.53 K, 101 kPa, x1 = 0.229 | 0.926
304.65 K, 101.32 kPa, x1 = 0.4313 | 1.42
305.15 K, 101.32 kPa, x1 = 0.496 | 1.4
305.36 K, 101 kPa, x1 = 0.238 | 0.989
305.44 K, 101 kPa, x1 = 0.229 | 0.911
305.55 K, 101.32 kPa, x1 = 0.5628 | 1.44
305.65 K, 101.32 kPa, x1 = 0.4039 | 1.28
305.65 K, 101.32 kPa, x1 = 0.4313 | 1.3
306.15 K, 101.32 kPa, x1 = 0.2643 | 0.98
306.26 K, 101 kPa, x1 = 0.229 | 0.893
306.75 K, 101.32 kPa, x1 = 0.5628 | 1.39
307.15 K, 101.32 kPa, x1 = 0.4039 | 1.15
307.43 K, 101 kPa, x1 = 0.229 | 0.874
307.49 K, 101 kPa, x1 = 0.238 | 0.943
308.15 K, 101.32 kPa, x1 = 0.2643 | 0.93
308.15 K, 101.32 kPa, x1 = 0.496 | 1.27
308.4 K, 101 kPa, x1 = 0.229 | 0.857
309.15 K, 101.32 kPa, x1 = 0.4039 | 1.06
309.15 K, 101.32 kPa, x1 = 0.4313 | 1.14
309.28 K, 101 kPa, x1 = 0.229 | 0.838
309.65 K, 101.32 kPa, x1 = 0.5628 | 1.27
310.15 K, 101.32 kPa, x1 = 0.2643 | 0.89
310.15 K, 101.32 kPa, x1 = 0.4039 | 1.04
310.15 K, 101.32 kPa, x1 = 0.4313 | 1.11
310.15 K, 101.32 kPa, x1 = 0.496 | 1.22
310.41 K, 101 kPa, x1 = 0.238 | 0.886
310.69 K, 101 kPa, x1 = 0.229 | 0.818
311.29 K, 101 kPa, x1 = 0.229 | 0.807
311.68 K, 101 kPa, x1 = 0.238 | 0.861
312.29 K, 101 kPa, x1 = 0.229 | 0.791

CCCCCCCCCC(=O)OC + CCCCO
viscosity [mPa·s], 100 kPa
Conditions | x1 = 0.1 | x1 = 0.2 | x1 = 0.3 | x1 = 0.4 | x1 = 0.5 | x1 = 0.6001 | x1 = 0.6999 | x1 = 0.7987 | x1 = 0.8967
318.15 K | – | 1.285 | 1.239 | 1.22 | 1.213 | 1.222 | 1.238 | 1.262 | 1.295
323.15 K | 1.25 | 1.17 | 1.132 | 1.117 | 1.117 | 1.126 | 1.142 | 1.166 | 1.198

CC(C)(C)N + O
viscosity [mPa·s], 101.33 kPa
Conditions | x1 = 0.1001 | x1 = 0.2002 | x1 = 0.2998 | x1 = 0.3996 | x1 = 0.5 | x1 = 0.5999 | x1 = 0.6984 | x1 = 0.7998 | x1 = 0.9
308.15 K | – | – | – | – | – | – | – | – | 0.4625
313.15 K | 1.622 | 1.905 | 1.759 | 1.429 | 1.102 | 0.8436 | 0.6553 | 0.5186 | 0.4274
